Source: the supplement of paper PMC3724861
The other results are listed elsewhere or left out.

Each sequence was assayed on T1, Caupolican (Caup) homeodomain DNA-binding domain (assay: PBM E-score (8-mer, recovered from the published 9-mer minima) (E-score (dimensionless, -0.5 to 0.5)); Drosophila protein; higher = stronger relative binding preference, active = 0.31 or more).
T1 sequence: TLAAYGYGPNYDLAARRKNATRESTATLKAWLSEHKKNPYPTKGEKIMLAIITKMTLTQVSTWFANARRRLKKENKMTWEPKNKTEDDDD
Outline: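 An enrichment score, with higher meaning stronger, expresses relative binding preference for each short DNA word. The protein used was Caup's homeodomain DNA-binding domain (residues 214-303), produced by in vitro transcription and translation and tested at 100 nM on custom-designed protein binding microarrays. The 8-mer values were recovered from published 9-mer scores, each equal to the lower of its two constituent 8-mer scores.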

| Sequence | PBM E-score |
| --- | --- |
| AACCGGCT | inactive: -0.0645 |
| ACGCTGAT | ≥ 0.0517 |
| GTAAAATA | inactive: 0.0769 |
| ATAGCTTG | inactive: 0.0692 |
| GTCAGGAA | inactive: 0.0693 |
| CCACCTTA | inactive: -0.14 |
| CAGTGTCC | inactive: 0.0457 |
| CATTTCCA | inactive: 0.0721 |
| GCTTAAAA | inactive: -0.0795 |
| ATACTGCC | inactive: -0.0107 |
| CGTATAAC | inactive: 0.0722 |
| ACGGCGTC | inactive: -0.143 |
| AATTGGTG | inactive: 0.104 |
| GCGTCCAC | inactive: -0.155 |
| CGATATCC | inactive: 0.0525 |
| AATGAGCG | inactive: 0.00941 |
| AACTGACC | inactive: -0.0913 |
| CGATGTAA | inactive: 0.276 |
| ATACAAGA | active: 0.322 |
| GGATCTAC | inactive: 0.0541 |
| CATCACGG | inactive: -0.0272 |
| ACGCGTAG | inactive: -0.0214 |
| CTCCATCC | inactive: -0.0505 |
| GGTATGGA | inactive: -0.0147 |

| Sequence | PBM E-score |
| --- | --- |
| AACAACCA | active: ≥ 0.324 |
| GACTAGGC | inactive: -0.0927 |
| CTAAGCAC | inactive: -0.0341 |
| TCGAAAGA | inactive: -0.0338 |
| CCCAATGA | inactive: 0.0122 |
| AAGGTGCT | inactive: -0.0707 |
| CCCATGTC | inactive: 0.309 |
| CTCCCTTA | inactive: -0.106 |
| ACTAGTGA | inactive: 0.113 |
| ATTAACCC | inactive: 0.0459 |
| TAGAATCA | inactive: 0.0986 |
| CGGGCCAC | inactive: -0.27 |
| CCATCCTA | inactive: -0.044 |
| AAAACTTG | inactive: 0.05 |
| GCTTGGAC | inactive: -0.0623 |
| AGTAGCGC | inactive: -0.062 |
| GGTCGCCA | inactive: -0.204 |
| GCAGCCGC | inactive: -0.318 |
| CTAAATTA | inactive: 0.0334 |
| AATGCGAC | inactive: 0.0137 |
| GCCCAAGC | inactive: -0.199 |
| CACGGGAC | inactive: 0.00904 |
| GCCGAGCC | inactive: -0.204 |
| ACACTCGA | inactive: 0.0207 |

| Sequence | PBM E-score |
| --- | --- |
| CGTGCTGC | inactive: -0.143 |
| AATAGATG | inactive: 0.0976 |
| GTTAGTTA | inactive: 0.192 |
| CCCAGCCG | inactive: -0.299 |
| GTACTTTA | inactive: 0.123 |
| CTGCAACC | inactive: -0.0196 |
| AACTGATA | inactive: 0.146 |
| CTCTCCGC | inactive: -0.231 |
| CATTTGAA | inactive: 0.0239 |
| CACTGTCC | inactive: 0.0264 |
| GGACCTTA | inactive: -0.127 |
| CGTACTAG | inactive: 0.107 |
| CCCTAGGC | inactive: -0.196 |
| TAGTGAAA | inactive: 0.126 |
| AAAAGTTC | inactive: 0.0847 |
| GGTACCAA | inactive: 0.0374 |
| AAACTCTG | inactive: 0.024 |
| CGGGCACC | inactive: -0.188 |
| AGAGGCGG | inactive: -0.193 |
| ATGACCGA | ≥ 0.0243 |
| CTACCCGA | inactive: -0.0664 |
| CGCAAGTC | inactive: -0.0559 |
| AGTGTATC | inactive: 0.186 |
| CCCTTGCG | inactive: -0.163 |

| Sequence | PBM E-score |
| --- | --- |
| TATACCCA | inactive: -0.0655 |
| ATGCGTAA | inactive: 0.0731 |
| CGGGTATA | inactive: 0.0282 |
| AGAGCACT | inactive: -0.112 |
| AGGGTCGG | inactive: -0.154 |
| AGCCTATA | inactive: -0.0255 |
| GCCCACTA | inactive: -0.0581 |
| CATAAGGG | inactive: -0.078 |
| GAAACACC | inactive: 0.116 |
| CCGCTGGC | inactive: -0.222 |
| AGTGAGAT | inactive: -0.0217 |
| AATTGATC | inactive: 0.0461 |
| AGTCCCCG | inactive: -0.156 |
| GAAACAAC | inactive: 0.161 |
| ACTTTCTA | ≥ 0.0685 |
| CGAGCTGC | inactive: -0.142 |
| TAAGACCA | inactive: 0.0445 |
| GGTCTAAA | inactive: -0.0393 |
| CTCCACCA | inactive: -0.13 |
| ACATACGG | inactive: 0.14 |
| GGACCAGA | inactive: -0.104 |
| AATACTGA | inactive: 0.143 |
| AATGGCAT | inactive: 0.0414 |
| GGAGGACA | inactive: 0.0978 |

| Sequence | PBM E-score |
| --- | --- |
| ATGCTTCA | inactive: 0.061 |
| GGGGGCTA | inactive: -0.254 |
| AGAACTGG | inactive: -0.0455 |
| AACGACCA | inactive: 0.102 |
| CGTCGGAC | inactive: -0.119 |
| TACAGGGA | inactive: 0.0542 |
| AAGCGACC | inactive: 0.0153 |
| GGTAGGCA | inactive: -0.105 |
| AATTTCCA | ≥ 0.145 |
| CACGCAAA | inactive: 0.0933 |
| CAGCTTAC | inactive: 0.0155 |
| ATCGTACC | inactive: -0.0488 |
| AAGTCCAA | inactive: 0.025 |
| AGCTGCTC | inactive: -0.0828 |
| GGGACTAA | inactive: -0.0755 |
| AAAGGTGC | inactive: -0.0982 |
| GCACGGAA | inactive: -0.0343 |
| GCGCATCA | inactive: -0.0471 |
| CGAGTTGA | inactive: 0.0454 |
| AGGTAGAA | inactive: 0.0148 |
| AAAAGGGC | inactive: -0.109 |
| CTAGACCA | inactive: -0.0808 |
| CTGGTCAA | inactive: -0.0384 |
| CCGTACCG | inactive: -0.141 |

| Sequence | PBM E-score |
| --- | --- |
| ATTTAGAA | inactive: 0.00688 |
| AAGCGGCC | inactive: -0.218 |
| CGGCCTGA | inactive: -0.21 |
| ATACACCG | inactive: 0.184 |
| ATATTATA | inactive: 0.259 |
| ACGGAAGA | inactive: -0.0381 |
| AGACCATC | inactive: -0.0686 |
| GAGGATGA | inactive: -0.0942 |
| CAGGTCTA | inactive: 0.0239 |
| CCGGTCTA | inactive: -0.187 |
| AGGAGCTC | inactive: -0.187 |
| AACCATTA | ≥ 0.182 |
| AGCTCCGG | inactive: -0.212 |
| CTACGACC | inactive: 0.0644 |
| CACTCCTC | inactive: -0.106 |
| CAGTGTAA | inactive: 0.218 |
| GACAAAGA | inactive: 0.13 |
| GGCACAAA | inactive: -0.0114 |
| GGACCCAC | inactive: -0.208 |
| CACGAGCG | inactive: -0.124 |
| CGGCGCTC | inactive: -0.225 |
| TCGCGTAA | inactive: 0.0536 |
